# Test results taken from publication PMC4336329 (PLoS ONE, 2015).
# Hit rate of the full screen: of about 310,000 compounds, about 2,200 (0.71%) showed an effect of 50% or more. The effect is printed as a negative number. The list shows a part of the results. Where a SMILES comes first, the peptide text is derived from it. The star is where a group is joined. Cbz = O=C(OCc1ccccc1)*
# Target: human ether-à-go-go-related gene (hERG) potassium channel (human, UniProt Q12809)
# Assay: primary screen, population patch clamp on CHO cells stably expressing hERG
# human ether-à-go-go-related gene (hERG) potassium channel, sequence (Q12809 whole entry, looked up): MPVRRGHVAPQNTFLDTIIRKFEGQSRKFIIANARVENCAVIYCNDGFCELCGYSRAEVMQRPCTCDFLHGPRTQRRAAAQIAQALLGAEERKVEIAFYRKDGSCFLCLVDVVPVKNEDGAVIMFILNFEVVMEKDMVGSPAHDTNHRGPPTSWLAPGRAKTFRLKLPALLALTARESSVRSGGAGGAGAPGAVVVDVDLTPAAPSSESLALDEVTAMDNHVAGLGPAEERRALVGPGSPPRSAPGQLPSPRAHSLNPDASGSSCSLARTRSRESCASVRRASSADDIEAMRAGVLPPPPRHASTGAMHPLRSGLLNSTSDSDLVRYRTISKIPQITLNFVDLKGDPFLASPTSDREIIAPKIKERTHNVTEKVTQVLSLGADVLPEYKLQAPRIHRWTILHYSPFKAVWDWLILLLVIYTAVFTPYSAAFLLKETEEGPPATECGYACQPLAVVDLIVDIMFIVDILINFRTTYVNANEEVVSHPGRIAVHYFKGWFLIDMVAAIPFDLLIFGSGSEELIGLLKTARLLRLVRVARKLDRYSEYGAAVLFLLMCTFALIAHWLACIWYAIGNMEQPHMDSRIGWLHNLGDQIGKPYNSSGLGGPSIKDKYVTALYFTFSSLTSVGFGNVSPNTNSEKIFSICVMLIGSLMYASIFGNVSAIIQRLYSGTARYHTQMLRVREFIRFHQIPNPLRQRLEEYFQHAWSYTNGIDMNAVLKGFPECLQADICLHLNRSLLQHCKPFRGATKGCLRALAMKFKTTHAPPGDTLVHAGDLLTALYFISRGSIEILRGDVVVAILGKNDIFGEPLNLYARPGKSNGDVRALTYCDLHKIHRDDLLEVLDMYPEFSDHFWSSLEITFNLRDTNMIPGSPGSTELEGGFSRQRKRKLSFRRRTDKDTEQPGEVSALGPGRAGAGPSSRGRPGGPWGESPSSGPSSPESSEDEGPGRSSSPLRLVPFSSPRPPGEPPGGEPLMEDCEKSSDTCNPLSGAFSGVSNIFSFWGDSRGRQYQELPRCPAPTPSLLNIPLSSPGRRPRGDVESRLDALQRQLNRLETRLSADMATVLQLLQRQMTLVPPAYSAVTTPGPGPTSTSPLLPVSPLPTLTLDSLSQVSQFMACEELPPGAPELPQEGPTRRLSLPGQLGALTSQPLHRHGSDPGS
row,Structure (SMILES),"hERG current change (%, negative = inhibition) at 1uM [%]"
1,CCOC(=O)C(C)Sc1nc(N2CCOCC2)c2c(c1C#N)CC(C)(C)OC2 (stereo not drawn),-13.4
2,O=C(O)CCC(=O)N1N=C(c2ccc(Br)cc2)CC1c1ccc(Br)cc1 (stereo not drawn),13.8
3,Cc1nc2nc(CNC(=O)OC(C)(C)C)nn2c(C)c1CCC(=O)Nc1ccc2c(c1)OCO2,10.2
4,CCCOC(=O)c1ccccc1C(=O)OCCC,3.27
5,O=C(c1ccc2ccccc2c1)N1CCOCC1,0.316
6,Br.N=c1n(CCc2ccccc2)c2ccccc2n1Cc1ccccc1F,-9.81
7,CCOC(=O)c1c(C)[nH]c(C(=O)N/N=C\c2ccccc2Cl)c1C,12.5
8,Cc1ccc(S(=O)(=O)Nc2nc(-c3ccc(F)cc3)cs2)cc1,11.8
9,Cc1nn(S(=O)(=O)N2CCOCC2)c(C)c1Br,12.3
10,Clc1ccccc1Cn1nnc2c(NCCN3CCOCC3)ncnc21,6.09
11,CCC1(C)Cc2c(sc3nc(SC)[nH]c(=O)c23)CO1 (stereo not drawn),11.4
12,COc1cccc(CN2CCN(c3ccc(F)cc3)C2=O)c1,9.9
13,COc1ccc2[nH]cc(CCNC(=O)Nc3ccccc3C)c2c1,14
14,Fc1ccccc1N1CCN(Cc2nc(-c3ccccc3)no2)CC1,4.96
15,Cc1ccc2[nH]c(=O)c(CN(Cc3cccs3)S(=O)(=O)c3ccc4c(c3)OCCO4)cc2c1,10.5
16,Cc1nn(CC(=O)NCCCc2ccccc2)c(=O)c2cccn12,-16.5
17,Cc1ccc(-c2csc3nc[nH]c(=S)c23)cc1C,14.7
18,C[C@H](NC(=O)c1nc[nH]c1C(=O)N[C@@H](Cc1ccccc1)C(=O)OC(C)(C)C)c1ccccc1,17.3
19,COc1ccc(CCNC(=O)c2ccc(S(=O)(=O)N(C)c3ccccc3)cc2)cc1OC,10.4
20,CC1(C)NC(=O)N(c2ccc([N+](=O)[O-])c(C(F)(F)F)c2)C1=O,14
21,COc1ccc(/C=C2\SC(=S)N(c3cccnc3)C2=O)cc1,9.63
22,Cc1cc(NC(=O)CSCC(=O)Nc2ccccc2OC(F)F)no1,12
23,O=C(Nc1ccccc1C(=O)N1CCCCCC1)c1ccc(Cl)cc1,12.5

row,Structure (SMILES),"hERG current change (%, negative = inhibition) at 1uM [%]"
1,COc1ccc(CCNC(=O)C/C(C)=N/NC(=O)Cc2cccc3ccccc23)cc1OC,11.7
2,COc1cc(NC(=O)c2cccs2)c(C(=O)OCC(=O)NC(=O)NCc2ccccc2)cc1OC,2.7
3,O=C(Oc1ccc2c(=O)c(Cl)coc2c1)c1ccncc1,10.6
4,CC(=O)Nc1ccc2c3c(cccc13)C(=O)N(c1ccccc1)C2=O,-0.237
5,CC(=O)C[C@H]1c2cc(C(F)(F)F)ccc2S(=O)(=O)N1Cc1ccccc1,6.19
6,CCN(CC)S(=O)(=O)c1ccc(OCC(=O)NC2CCS(=O)(=O)C2)c([N+](=O)[O-])c1 (stereo not drawn),13.5
7,C/C(=N/Nc1ncc(C(F)(F)F)cc1Cl)c1ccncc1,-11.8
8,Clc1ccc(CNC2CCN(Cc3ccccc3)CC2)cc1,-21.4
9,CCn1nnc(-c2ccccc2NS(=O)(=O)c2ccc(C(=O)OC)cc2)n1,14.7
10,NNc1nc2c(F)cccc2s1,-1.95
11,C[C@H](NC(=O)c1ccco1)C(=O)Nc1ccc(C#N)cc1,3.86
12,CC1(C)CC(=O)C(C(c2cc([N+](=O)[O-])ccc2Cl)C2C(=O)CC(C)(C)CC2=O)C(=O)C1,7.13
13,O=S(=O)(c1ccccc1)N(CC1CO1)c1ccccc1 (stereo not drawn),4.64
14,C=CCn1c(SCC(=O)Nc2cc3oc4ccccc4c3cc2OC)nnc1-c1cnccn1,6.39
15,O=C(CSc1n[nH]c(-c2ccccc2F)n1)Nc1cc(F)ccc1F,3.35
16,COC(=O)c1cc(OC)c(OC)cc1NC(=O)Nc1ccccc1F,8.43
17,Cc1cccc(N(C)C(=O)COc2cc(=O)n(C)c3ccccc23)c1,3.07
18,Cc1nnsc1-c1nnc(SCC(=O)c2ccc(F)cc2)n1C1CC1,10.3
19,COC1CCCN(Cc2cn(C)nc2-c2ccc(Oc3ccccc3)cc2)C1 (stereo not drawn),2.4
20,COCc1cc(C)nc2sc(C(=O)Nc3cccc(OC)c3)c(N)c12,11.2
21,CC(=O)Nc1ccc(NC(=O)CSc2ccc(-c3ccc(-n4ccnc4)cc3)nn2)cc1,15.4
22,COc1ccc(CCNC(=O)CN2CCN(c3cccc(C(F)(F)F)c3)CC2)cc1,-10
23,Nc1cc(N)c(OCC(F)(F)F)cc1OCC(F)(F)F,12.5

row,Structure (SMILES),"hERG current change (%, negative = inhibition) at 1uM [%]"
1,Cc1c(C)n2c(SCC(=O)NC3CCCCC3)nnc2[nH]c1=O,5.04
2,CCOC(=O)C1=C(COC(=O)COc2ccccc2OCC)NC(=O)NC1C (stereo not drawn),10.5
3,CN(C1CCCC1)C1CCN(C(=O)CNC(=O)/C=C/c2ccc(F)cc2)CC1,-11.1
4,CCNS(=O)(=O)c1ccc(NC(=O)CC(C)c2ccccc2)cc1 (stereo not drawn),5.94
5,CS(=O)(=O)N(CC(=O)NCc1ccc2c(c1)OCO2)c1ccccc1,7.84
6,CCCc1cc(=O)oc2c(C)c(OCC(=O)N3CCC(C(N)=O)CC3)ccc12,13.3
7,COc1ccc(/C=C/C(=O)N2CCN(c3ccccn3)CC2)c(OC)c1OC,5.69
8,N#CC1=C(S)N(c2ccc(F)cc2)C(c2ccco2)NC1=O (stereo not drawn),24.9
9,Cc1cc(C)c2c(=O)[nH]n(C3CC(C)N(C)CC3C)c2n1 (stereo not drawn),14.9
10,Cc1cccc(NC(=O)CSc2nnc(CNC(=O)c3cccs3)o2)c1C,5.89
11,S=C1SCN(Cc2cccnc2)CN1Cc1cccnc1,5.84
12,COCCCN1C(=O)N(c2ccccc2)C(=O)C1CC(=O)Nc1ccccc1 (stereo not drawn),13.9
13,CSc1ccccc1C(=O)Nc1ccc2c(c1)CCC2,-1.71
14,CCOC(=O)c1cc(S(=O)(=O)NC2CCC(C)CC2)cn1C (stereo not drawn),1.07
15,CC(C)C(=O)Nc1ccc(Br)cc1Cl,2.08
16,CCOC(=O)/C(C#N)=C/Nc1cc(OC)ccc1OC,8.95
17,O=C(Cn1cc2c(n1)CCCC2)NCC1CCCO1 (stereo not drawn),8.52
18,Br.CC(C)(C)N1Cc2ccccc2C1=N,1.21
19,O=C1CCC/C(=N\NC(=O)COc2ccc(Cl)cc2)C1,6.17
20,Cc1[nH]n(C(N)=S)c(=O)c1N=Nc1ccc(S(=O)(=O)N2CCCC2)cc1,9.63
21,COc1ccc(C(=O)N2CCC(C(=O)c3c(C)cc(C)cc3C)CC2)cc1,-8.27
22,O=C(Cn1cnc2c(nnn2Cc2ccc(F)cc2)c1=O)Nc1ccccc1,3.63
23,CC1CN(C(=O)c2ccccc2)C(=Nc2cccc(S(=O)(=O)N(C)C)c2)S1 (stereo not drawn),5.14

row,Structure (SMILES),"hERG current change (%, negative = inhibition) at 1uM [%]"
1,Cc1ccccc1NC(=O)OCc1cccnc1Oc1ccc(Cl)cc1,3.29
2,CCn1cc(C(=O)NCc2ccc3c(c2)OCO3)c(=O)c2cc(S(=O)(=O)N(C)C)ccc21,4.07
3,Nc1nnc(Cc2ccc(Cl)c(Cl)c2)s1,5.65
4,O=C(C[n+]1cc(-c2ccc(F)cc2)n2c1CCC2)OCc1ccccc1.[Br-],7.47
5,O=C(O)Cc1ccc2ccc3ccccc3c2c1,14.1
6,COc1ccc(C2CC(c3cccs3)=NN2C(=O)CSc2nnnn2C)cc1OC (stereo not drawn),-5.07
7,Cc1cc(C)cc(OCc2nnc(SCC(=O)NC3CC3)n2C)c1,18.9
8,Cc1ccccc1NC(=O)C(=O)NCCCN1CCOCC1,11.2
9,CN(CC(=O)Nc1ccccc1C(F)(F)F)CC(=O)N1CCCCCC1,-1.24
10,O=C(NCc1csc(-c2cccs2)n1)c1ccsc1,6.19
11,COC(=O)C(C)NC(=O)C1CCCN1C(=O)CNC(=O)OCc1ccccc1 (stereo not drawn) (Cbz-Gly-Pro-Ala-OMe; configuration not given here),17
12,O=C(C#Cc1ccccc1)c1cccc([N+](=O)[O-])c1,19.2
13,CCn1c(Cc2ccccc2)nnc1SCC(=O)Nc1ccc(N2CCOCC2)c(Cl)c1,10.6
14,CC1CN(CCCCSc2ccc(Cl)cc2)CC(C)O1.O=C(O)C(=O)O (stereo not drawn),6.81
15,COc1ccccc1NC(=O)CSc1nc2ccccc2c(=O)n1CCNC(C)=O,-14.5
16,CCC(=O)Nc1sc2c(c1C#N)CC(C)(CC)OC2 (stereo not drawn),17.7
17,CNC(=O)n1ccc(C(=O)N2CCCCC2)n1,14.1
18,CCc1nc2n[nH]c(N)c2c2c1CCCC2,0.243
19,CCc1nnc(NC(=O)c2ccc(S(=O)(=O)N3CCCCC3C)cc2)s1 (stereo not drawn),14.8
20,Nc1nnc(SC2CC(=O)N(c3ccccc3)C2=O)s1 (stereo not drawn),15.3
21,Cc1ccnc(NC(=O)COc2ccc3oc4c(c3c2)CCCC4)c1,4.7
